According to PubChem BioAssay AID1745845 (National Center for Advancing Translational Sciences (NCATS), 2022):
Hit rate of the full screen: of about 360,000 compounds, about 2,600 (0.72%) were called active. The shares of active, inactive and inconclusive entries below differ from those in the screen. Calls follow the shape of the dose curve; as a rule, active = well fitted inhibition curve with a large enough effect; inconclusive = small, poorly fitted or top-dose-only effect; inactive = no such curve, though single readings can be large or run the other way. Where the call is inconclusive, the potency comes from a doubtful curve fit.

Assay: Primary qHTS for Inhibitors of ATXN expression; also: nearly all actives have a fitted effect of over 55% in size
Conditions: HEK-293 ATXN2-luciferase reporter, luminescence, 24 h; activity change, negative = inhibition: at 57 µM (top of the series)
Method in brief: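 ATXN2-luciferase reporter cells (luciferase flanked by upstream and downstream ATXN2 gene portions) were treated 24 h at 37 °C with compounds at up to 57 uM. SteadyGlo luminescence gave expression; GF-AFC fluorescence gave viability.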
% is scaled to controls: 0 for no effect and ±100 for the full control effect; potency is read from the fitted curve at half-maximal effect; tags tell the direction and shape of the fitted curve.

SMILES | activity change, negative = inhibition | Potency
O=C(Nc1ccccc1)c1ccc(Cl)c(S(=O)(=O)Nc2ccccc2)c1 | inactive: 0.465% | –
Cc1cc(-n2c(C)cc(C(=O)CSc3nnnn3-c3ccc(Cl)cc3)c2C)no1 | – | inconclusive: 14.1 µM [inhibitor, partial curve, poor fit]
CC1CCCN1c1ccnc2cc(Cl)ccc12 (stereo not given) | – | inconclusive: 8.91 µM [inhibitor, partial curve]
NNc1nnc2c3cc(F)ccc3n(Cc3ccccc3)c2n1 | – | inconclusive: 39.8 µM [inhibitor, single point]
COc1ccc(CCNC(=O)c2ccc3[nH]c(C)c(C)c3c2)cc1OC | – | inconclusive: 31.6 µM [inhibitor, partial curve, poor fit]
CCc1nc2c(OCc3ccc(Cl)cc3Cl)cccn2c1N(C)C(=O)CC(C)C | – | inconclusive: 39.8 µM [inhibitor, single point]
Cc1ccccc1NC(=S)NC(=O)C1CCCCC1 | inactive: 8.3% | –
COc1ccc(-c2cc(C(=O)Nc3c(C)nn(Cc4ccccc4)c3C)no2)cc1 | – | inconclusive: 15.8 µM [inhibitor, partial curve, poor fit]
CC(=O)Nc1ccc(S(=O)(=O)NCC(=O)OCC(=O)NNC(=O)c2ccccc2)cc1 | inactive: 2.8% | –
Oc1ccccc1-c1cc(-c2ccc3c(c2)OCCO3)n[nH]1 | inactive: -35.6% | –
O=[N+]([O-])c1cccc(-c2nnc3c4ccccc4c4ccccc4n23)c1 | – | inconclusive: 39.8 µM [inhibitor, single point]
CN1CCC(CNc2ccc3ncc(-c4cccc(OC(F)(F)F)c4)n3n2)CC1 | – | active: 24.3 µM
CC(C)C1C(=O)N(Cc2cn(CCC3OCCO3)nn2)CCS(=O)(=O)N1Cc1ccc(-c2ccc(Cl)c(Cl)c2)cc1 (stereo not given) | – | inconclusive: 28.2 µM [inhibitor, single point]
CCOC(=O)Cc1csc(NC(=O)CC)n1 | inactive: 6.85% | –
NC(=O)c1cc(N2C(=O)C=CC2=O)ccc1Cl | – | inconclusive: 31.6 µM [inhibitor, partial curve, poor fit]
CCCCn1c(CN2CCN(c3cccc(Cl)c3)CC2)nc2c1c(=O)[nH]c(=O)n2C | – | inconclusive: 15.8 µM [inhibitor, partial curve, poor fit]
C=CCNc1sc(C(=O)c2cccs2)c(N)c1C#N | – | inconclusive: 25.1 µM [inhibitor, partial curve, poor fit]
COc1ccccc1N(CC(=O)NCCSCc1cccc(C)c1)S(=O)(=O)c1ccccc1 | – | inconclusive: 39.8 µM [inhibitor, single point]
CCc1nc2c(OCCC3CCCCC3)cccn2c1N(C)C(=O)c1ccc(C)cc1 | – | inconclusive: 25.1 µM [inhibitor, single point]
COC(=O)c1sc(NC(=S)NC(=O)c2ccccc2C)nc1C | inactive: -4.34% | –

SMILES | activity change, negative = inhibition | Potency
CC(C)CC(COCc1ccc(Cl)cc1)N1CCN(C(=O)c2ccc(C(F)(F)F)cc2)CCC1=O (stereo not given) | – | inconclusive: 35.5 µM [inhibitor, single point]
COCCOC(=O)C1=C(C)NC(C)=C(C(=O)OC(C)C)C1c1cccc([N+](=O)[O-])c1 (stereo not given) | – | inconclusive: 35.5 µM [inhibitor, partial curve, poor fit]
O=C(NC(=S)N1CCOCC1)c1cn(-c2ccccc2)nc1-c1ccccc1 | inactive: -15.4% | –
c1ccc2c(-c3[nH]ncc3CNCCCn3ncc4ccccc43)cccc2c1 | inconclusive: -44.8% [inhibitor] | –
CCc1c(C)sc(NC(=S)N2CCN(S(C)(=O)=O)CC2)c1C(=O)OC | inactive: -25.8% | –
CC(=O)c1cccc(-c2cnc3c(NC=O)cc(-c4ccccc4)cn23)c1 | – | inconclusive: 35.5 µM [inhibitor, single point]
C/C=C(\C)C(=O)OC1CC(C)(C)C[C@H]2C3=CC[C@@H]4[C@@]5(C)CCC(O[C@@H]6O[C@@H](C(=O)O)[C@@H](O)C(O[C@@H]7OC[C@H](O)[C@@H](O)[C@@H]7O[C@@H]7OC(CO)C(O)[C@@H](O)[C@@H]7O)C6O[C@@H]6OC(CO)C(O)C(O)C6O)[C@@](C)(CO)[C@@H]5CC[C@]4(C)[C@]3(C)CC(O)[C@@]12CO (stereo not given in full) | – | inconclusive: 28.2 µM [inhibitor, single point]
COc1ccc(C(=O)Nc2cccc(S(C)(=O)=O)c2)cc1OC | – | inconclusive: 1.68 µM [inhibitor, partial curve, poor fit]
O=C(NCC1CCCN1S(=O)(=O)c1cccs1)c1ccc(F)cc1 (stereo not given) | inactive: -8.8% | –
COc1ccc2sc(-c3ccccc3OC)c(-c3ccc(O)cc3)c2c1 | – | inconclusive: 31.6 µM [inhibitor, partial curve, poor fit]
CCN1CCN(/C=N/c2nc3c(s2)CCCC3)CC1 | – | inconclusive: 8.91 µM [inhibitor, partial curve, poor fit]
Cc1cccc(-n2c3nc(=O)[nH]c(=O)c-3cc3cc([N+](=O)[O-])ccc32)c1 | inactive: -13.8% | –
Cc1ccc(-c2nc3ccccc3[nH]2)cc1NC(=S)NC(=O)c1ccccc1Br | – | inconclusive: 25.1 µM [inhibitor, single point]
CCc1cccc2c(SC(C)C(=O)NCC3CCCO3)nc(-c3ccccc3)nc12 (stereo not given) | inactive: 4.71% | –
O=C(NCc1ccc(F)cc1)c1cc(C2CCCCN2C(=O)c2ccc(Cl)cc2)on1 (stereo not given) | – | inconclusive: 31.6 µM [inhibitor, partial curve, poor fit]
C[C@@H]1CN([C@H](C)CO)C(=O)c2c(c3ccccc3n2C)-c2ccccc2CO[C@H]1CN(C)C(=O)Nc1ccccc1 | inactive: -38.2% | –
COC(=O)c1ccc2c(=O)n(NC(=O)C(c3ccccc3)c3ccccc3)c(=S)[nH]c2c1 | – | inconclusive: 28.2 µM [inhibitor, partial curve, poor fit]
CCOc1cc(/C=N/NC(N)=O)cc(Br)c1OCC(=O)Nc1cccc2ccccc12 | inactive: -17.2% | –
O=C(NNC1=C(C(=O)C(F)(F)F)CCC1)c1ccc(Cl)cc1 | – | inconclusive: 39.8 µM [inhibitor, single point]
CCOC(=O)c1c(C)[nH]c(C)c1S(=O)(=O)N1CCCC(C(=O)N2CCN(c3ccc(Cl)cc3)CC2)C1 (stereo not given) | – | inconclusive: 17.8 µM [inhibitor, partial curve, poor fit]
